According to PubChem BioAssay AID463173 (ICCB-Longwood Screening Facility, Harvard Medical School, 2010):
Out of some 52,000 compounds screened, about 1,700 (3.3%) were called active. Rule as the data show it: active = survival mostly below about 52% (no sharp cut-off); inactive = mostly above about 56%. The list shows a part of the results.

test system: Wild type; test: S. aureus survival, RN4220 and DeltatarO strains – OD600, teichoic acid synthesis inhibitors, primary screen (AID 463173); conditions: S. aureus RN4220 wild type/DeltatarO growth, OD600, 18 h, active compounds read low, screened at 18.75 µg/mL (by protocol)

SMILES | survival
CC(=O)C(Sc1nc(-c2ccccc2Cl)nc2c1c(=O)n(C)c(=O)n2C)C(=O)N(C)C (stereo not given) | inactive: 71%
CCC(=O)N1CCc2cc(S(=O)(=O)NC(CC(C)C)C(=O)NCc3cccc(OC)c3)ccc21 (stereo not given) | inactive: 73%
Cc1ccc(CNC(=O)CCCn2nc(C)n3c(cc4sccc43)c2=O)cc1 | inactive: 82%
COc1cccc(C(=O)c2cn(CC(=O)Nc3ccc4c(c3)OCCO4)c3nc(C)ccc3c2=O)c1 | inactive: 86%
COc1ccc(C2CC(=O)C=C(NCCC(C)C)C2)cc1 (stereo not given) | inactive: 115%
Cc1ccc(NC(=O)NCc2c(-n3cccc3)sc3c2CCCC3)c(Cl)c1 | inactive: 90%
Cc1ccc(CNC(=O)c2cn(C)c3ccc(S(=O)(=O)N4CCC(C)CC4)cc3c2=O)cc1 | inactive: 71%
CCOC(=O)c1cccc(NC(=O)NC2COc3ccccc3C2)c1 (stereo not given) | inactive: 73%
CCN(Cc1ccccc1)S(=O)(=O)c1ccc(F)c(C(=O)Nc2ccc(C(C)C)cc2)c1 | inactive: 95%
Cc1cccc(C)c1NC(=O)c1cc2sccc2n1Cc1ccc(F)cc1 | inactive: 152%
COc1cc(NC(=O)C2CCN(S(=O)(=O)c3c(C)noc3/C=C/c3c(C)cc(C)cc3C)CC2)cc(OC)c1 | inactive: 80%
COc1ccc(OC)c(CNc2ncc(-c3ccc(Cl)cc3)n2C)c1 | inactive: 34%
CCC(=O)N=c1sc2ccccc2n1C | inactive: 110%
Cc1ccccc1CN1C(=O)c2ccccc2Sc2ccc(C(=O)NCCCN3CCOCC3)cc21 | inactive: 66%
O=C(NCCCc1ccccc1)c1ccc2c(c1)sc1nc(-c3ccc(F)cc3)cn12 | inactive: 43%
O=C(NC1CCCCC1)c1ccc2ccccc2n1 | inactive: 117%
CC(=O)c1ccc(S(=O)(=O)Nc2cccc(-c3ccc(N4CCCC4)nn3)c2)cc1 | inactive: 71%
Cc1ccc(Sc2c(C)nn(-c3ccccc3)c2OC(=O)CC(C)C)cc1 | inactive: 45%
CC1(C)CC2(C=CC(=O)CC2)CCO1 (stereo not given) | inactive: 96%
CCOc1ccc(CC(=O)NCc2ccc3c(c2)CCN3C(=O)c2ccc(F)cc2)cc1OCC | inactive: 69%
Cc1ccc(NC(=O)c2sc3nc[nH]c(=O)c3c2C)cc1C | inactive: 93%
Cc1ccc(NC(=O)CN2C(=O)c3ccccc3Sc3ncccc32)c(C)c1 | inactive: 90%
O=C(NCCc1ccc(Cl)cc1)c1ccc2c(c1)N(Cc1ccccc1)C(=O)CS2 | inactive: 19%

SMILES | survival
COc1ccccc1NC(=O)C1=C(C)Nc2nc(SCc3ccccc3)nn2C1c1cccs1 (stereo not given) | inactive: 127%
CC(=O)c1ccc(NC(=O)c2nn(C)c3c2COc2ccccc2-3)cc1 | inactive: 97%
CCn1c(SCC(=O)Nc2cc(Cl)ccc2OC)nc2c([nH]c3ccccc32)c1=O | inactive: 75%
Cc1sc2ncnc(N3CCC(C)CC3)c2c1C | inactive: 101%
CCc1cc2c(-c3ccccc3)cc(=O)oc2c2c1OCN(Cc1ccc(C)cc1)C2 | inactive: 75%
CCOC(=O)c1c(NC(=O)c2cc(-c3ccc(Br)cc3)on2)sc(C)c1C | inactive: 154%
NC(=O)c1ccccc1NC(=O)CSc1nc(N)cc(=O)[nH]1 | inactive: 111%
CC(Oc1ccccc1F)C(=O)N1CCC(c2nc3ccccc3o2)CC1 (stereo not given) | active: -18%
CCOc1ccccc1NC(=O)N1CCC(N2CCN(Cc3ccccc3)C(=O)C2=O)CC1 | inactive: 68%
CNC(=S)N(CCN1CCOCC1)Cc1cc2cc(C)c(Cl)cc2[nH]c1=O | inactive: 113%
O=c1c2ccccc2nc(-c2ccc(Cl)cc2)n1CCCCOc1ccc(F)cc1 | inactive: 60%
CN1C(=O)SC(N(CC(N)=O)c2ccccc2)C1=O (stereo not given) | inactive: 98%
COC(=O)c1ccc(NC(=O)CCOc2ccccc2)cc1 | inactive: 76%
Cc1ccc(Cn2c(Cc3ccccc3)nc3ccccc32)cc1 | active: -1%
Cc1ccc(N(CC(=O)NCc2ccc(OC(C)C)cc2)S(=O)(=O)N(C)C)cc1 | inactive: 45%
CCOC(=O)c1ccccc1NC(=O)CCc1c(C)nc2c(c1C)c(=O)n(C)c(=O)n2C | inactive: 91%
CCOc1ccc(CN2C(=O)c3ccccc3Sc3ccc(C(=O)NC4CCC(C)CC4)cc32)cc1 (stereo not given) | inactive: 88%
COC(=O)c1ccc(NC(=O)c2cc3cc4ccc(OC)c(Cl)c4nc3s2)cc1 | inactive: 88%
COc1ccc(CNC(=O)CCS(=O)(=O)c2cc3c4c(c2)CCN4C(=O)CC3)cc1 | inactive: 77%
Cc1cccc(NC(=O)Cn2c(=O)oc3cc(S(=O)(=O)N4CCCCCC4)ccc32)c1 | inactive: 106%
COc1ccc(-c2noc(CSc3nnc(-c4ccncc4)n3-c3ccc(OC)cc3)n2)cc1 | inactive: 102%
Cn1cc(C(=O)N2CCN(c3ccccc3)CC2)c(=O)c2cc(S(=O)(=O)N3CCCC3)ccc21 | inactive: 135%
O=C(NC1CC(=O)N(c2ccc(F)cc2)C1)C(c1ccccc1)c1ccccc1 (stereo not given) | inactive: 135%

SMILES | survival
O=C(C1CC1)N1CCc2cc(Br)cc(S(=O)(=O)Nc3ccc(C(F)(F)F)cc3)c21 | inactive: 67%
CCOc1ccc(-n2nc3ccc(NC(=O)COc4ccccc4C)cc3n2)cc1 | inactive: 83%
Cc1ccc(CSc2nc3cccnc3n2Cc2nc(-c3ccccc3F)oc2C)cc1 | inactive: 73%
COCCNC(=O)c1ccc(NC(=O)N2CCCCc3ccccc32)cc1 | inactive: 49%
CCOc1ccc(CNC(=O)CN2C(=O)CSc3c2c(C)nn3-c2ccccc2)cc1 | inactive: 80%
O=C(Nc1c(O)c2ccccc2oc1=O)c1ccccc1Cl | inactive: 64%
COc1nc(N(C)C)nc(N(CN2C(=O)c3ccccc3C2=O)S(=O)(=O)c2ccc(C)cc2)n1 | inactive: 108%
COc1ccc(S(=O)(=O)N(CCc2ccccc2)CC(=O)NCc2ccc(C)cc2)cc1 | inactive: 67%
CCCC(=O)Nc1nnc(S(=O)(=O)N(C)c2ccccc2)s1 | inactive: 113%
COC(=O)c1ccccc1NC(=O)CSc1c2c(nc3ccc(Cl)cc13)CCCC2 | inactive: 78%
COc1ccccc1CCNC(=O)C1CCN(c2nc3ccccc3nc2C(F)(F)F)CC1 | inactive: 121%
O=C(NCC(c1cccnc1)N1CCN(Cc2ccccc2)CC1)C(=O)Nc1ccc(F)cc1 (stereo not given) | inactive: 99%
COc1cccc(CNC(=O)C2CCCN(c3nnc(-n4c(C)ccc4C)s3)C2)c1 (stereo not given) | inactive: 81%
Cc1cc(C)c(S(=O)(=O)Nc2ccc(-c3ccc(N4CCCCC4)nn3)cc2)cc1C | inactive: 53%
CCOC(=O)N1CCN(CCC(=O)Nc2cc(C)ccc2C)CC1 | inactive: 72%
CC(C)c1ccc(NC(=O)CN(C)S(=O)(=O)c2ccc3c(c2)n(C)c(=O)c(=O)n3C)cc1 | inactive: 73%
CCn1cnc2cc(NCc3ccc(N(C)C)cc3)ccc21 | inactive: 94%
O=C(NC(=S)Nc1ccc(N2CCOCC2)cc1)c1ccccc1 | inactive: 97%
CCC1CCCCN1C(=O)CSc1nc(-c2ccc(OC)cc2)cc(C(F)(F)F)n1 (stereo not given) | active: -6%
CCOc1ccc(C(=O)Nc2ccc3nc(SCC(=O)N4CCCC4)sc3c2)cc1 | inactive: 89%
CCc1ccc(CNC(=O)c2cnc3sc(N4CCCCCC4)nn3c2=O)cc1 | inactive: 72%
CCn1cc2nc(SCC(=O)Nc3cccc(Cl)c3C)n(Cc3ccc(Cl)cc3)c(=O)c2n1 | inactive: 52%
COc1ccc(C(=O)NCc2nnc(SCC(=O)Nc3ccc(C)cc3)n2-c2ccccc2)cc1 | inactive: 135%

SMILES | survival
CCc1ccc(CNC(=O)c2ccc(NC(=O)N3CCSc4ncccc43)cc2)cc1 | inactive: 81%
O=C(CSc1nc2ccccc2c(=O)n1Cc1ccco1)N(c1ccccc1)c1ccccc1 | inactive: 114%
CCc1nc2nc(C)cc(Nc3cc(Cl)ccc3OC)n2n1 | inactive: 70%
Cc1ccc(SCC(=O)Nc2ccc3oc(-c4ccc(F)cc4)nc3c2)cc1 | inactive: 87%
O=C(Nc1cccnc1)c1cccs1 | inactive: 120%
CCOc1ccc(CNC(=O)CCc2c(C)nn(-c3ccc(N4CCOCC4)nn3)c2C)cc1 | inactive: 71%
Cc1cc(C(F)(F)F)n2nc(C(N)=O)cc2n1 | inactive: 103%
Cc1ccc(S(=O)(=O)N2CCC(c3nnc(-c4cccc(C)c4)o3)CC2)cc1 | inactive: 76%
CCOc1ccc(CCNC(=O)c2ccc(C)c(-n3cnc4cccnc43)c2)cc1 | inactive: 67%
CC(C)NC(=O)Cn1c(=O)nc(-c2ccccc2)c2ccccc21 | inactive: 72%
Cc1cccc(N(C)C(=O)CS(=O)(=O)c2cccc3nsnc23)c1 | inactive: 58%
Cc1ccc(C(C)C)c(OCc2ccc(C(=O)Nc3ccc(S(N)(=O)=O)cc3C)o2)c1 | inactive: 30%
COc1cccc(CNC(=O)c2ccc3c(Cl)c4c(nc3c2)CCCC4)c1 | inactive: 60%
CCOc1ccc(Nc2cc(C)c(C#N)c3nc4ccccc4n23)cc1 | inactive: 76%
O=C(CSc1ncn[nH]1)Nc1nccs1 | inactive: 113%
Cc1ccc(S(=O)(=O)c2nc(-c3ccco3)oc2SCC(=O)c2ccc(Cl)cc2)cc1 | inactive: 73%
O=C(OCc1ccco1)c1ccc2c(c1)N(Cc1ccc([N+](=O)[O-])cc1)C(=O)c1ccccc1S2 | inactive: 92%
O=C(CN1C(=O)COc2ccc(S(=O)(=O)N3CCCC3)cc21)NCCc1ccc(Cl)cc1 | inactive: 128%
Oc1ccccc1-c1nc(/C=C/c2ccccc2)nn1-c1ccccc1 | active: 2%
CCOC(=O)c1c(NC(=O)c2ccccc2C)sc2c1CCCC2 | active: -8%
Cc1nc(-n2nc(C)c(CCC(C)C)c2C)sc1C(=O)Nc1cccc(Cl)c1C | inactive: 87%
